# Results from PubChem BioAssay AID588453 (National Center for Advancing Translational Sciences (NCATS), 2011).
# Hit rate of the full screen: of about 390,000 compounds, about 4,000 (1%) were called active. Inconclusive results, whose numbers are uncertain, are shown with a selection of clear calls. The call rests on the fitted dose curve; in most records, active means well fitted inhibition curve with a large enough effect; inconclusive means small, poorly fitted or top-dose-only effect; inactive means no such curve, though single readings can be large or run the other way. Potencies beside an inconclusive call are fits to weak or partial responses and may not hold up.
# Target: Thioredoxin reductase 1, cytoplasmic (Rattus norvegicus) (UniProt O89049)
# UniProt O89049, sequence (O89049 whole entry, looked up): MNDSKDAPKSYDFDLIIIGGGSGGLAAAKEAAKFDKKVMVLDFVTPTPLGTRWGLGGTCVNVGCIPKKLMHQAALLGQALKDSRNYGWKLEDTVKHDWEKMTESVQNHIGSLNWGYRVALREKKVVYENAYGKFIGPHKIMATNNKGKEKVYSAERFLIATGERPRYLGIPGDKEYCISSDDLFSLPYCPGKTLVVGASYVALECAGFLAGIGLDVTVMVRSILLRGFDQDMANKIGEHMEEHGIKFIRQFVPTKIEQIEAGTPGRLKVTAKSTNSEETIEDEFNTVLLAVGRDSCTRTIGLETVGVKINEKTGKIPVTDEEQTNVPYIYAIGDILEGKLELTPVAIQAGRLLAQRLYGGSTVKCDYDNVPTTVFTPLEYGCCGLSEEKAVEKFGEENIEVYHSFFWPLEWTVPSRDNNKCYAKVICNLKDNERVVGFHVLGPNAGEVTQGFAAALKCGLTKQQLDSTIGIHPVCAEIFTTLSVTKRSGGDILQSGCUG
# Experiment: qHTS Assay for Inhibitors of Mammalian Selenoprotein Thioredoxin Reductase 1 (TrxR1): qHTS; further: nearly all actives have a fitted effect of over 65% in size
# Conditions: recombinant rTrxR1, NADPH fluorescence consumption, selenite substrate; series mostly up to 114 µM
# Summary of the method: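 Rat TrxR1 (90 nM in the dispensed reagent) was pre-reduced with 400 uM NADPH for 5 min at room temperature, then incubated with compound for 15 min. After 400 uM selenite was added, NADPH fluorescence (Ex 340/Em 450 nm) was followed for 8 min.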
# Potency means the concentration at half of the fitted maximal effect; tags describe the fitted curve by direction and shape.
row,Compound,Potency
1,CCCCOc1ccccc1C(=O)NNC(=S)NC(=O)c1ccccc1[N+](=O)[O-],"inconclusive: 89.1 µM [inhibitor, single point]"
2,COc1cc([N+](=O)[O-])ccc1N1C(=O)CC(Sc2nccc(C)n2)C1=O (stereo unspecified),"inconclusive: 39.8 µM [inhibitor, partial curve, poor fit]"
3,CCOc1ccc(C(C)NC(=O)c2ccccc2F)cc1 (stereo unspecified),inactive
4,Cc1ccc(C)c(N2CCN(c3nc4ccccc4n4nnnc34)CC2)c1,inactive
5,C=CCC(Nc1ccccc1)C12C=CC(O1)C(C(=O)OC)=C2C(=O)OC (stereo unspecified),active: 7.94 µM
6,O=[N+]([O-])c1ccc(S(=O)(=O)NCCCc2ccccc2)cc1,"inconclusive: 50.1 µM [inhibitor, partial curve]"
7,CCN1C(=O)N/C(=C/c2ccc(C)o2)C1=O,"inconclusive: 89.1 µM [inhibitor, single point]"
8,O=C(CSc1nnc(-c2ccc(S(=O)(=O)N3CCCC3)cc2)o1)NCc1ccco1,"inconclusive: 28.2 µM [inhibitor, single point]"
9,COc1ccc(C(=O)N/N=C/c2c[nH]c3ccccc23)cc1,inactive
10,Cc1ccc(C(=O)N2CC=C(c3ccccc3)CC2)o1,"inconclusive: 28.2 µM [inhibitor, single point]"
11,O=c1[nH]n2c(=O)c3c([nH]c2c1N=Nc1ccccc1)CCC3,"inconclusive: 8.91 µM [inhibitor, single point]"
12,COc1ccc(N2CCN(C(=O)c3ccc(CS(=O)c4cccc(C)c4)o3)CC2)cc1 (stereo unspecified),"inconclusive: 89.1 µM [inhibitor, partial curve, poor fit]"
13,O=C(CSc1nc2c([nH]c3ccccc32)c(=O)n1-c1ccc(F)cc1)Nc1ccc2c(c1)OCO2,"inconclusive: 39.8 µM [inhibitor, single point]"
14,COc1ccccc1NC(=O)CSc1nnc(CC(=O)Nc2cccc(C(F)(F)F)c2)n1C,inactive
15,CCC(Sc1ncccc1C(=O)OCCN1CCCC1=O)C(=O)NCc1ccco1 (stereo unspecified),"inconclusive: 50.1 µM [inhibitor, partial curve, poor fit]"
16,CCC(C)NC(=O)CN1C(=O)CSc2ccc(S(=O)(=O)N3CCCC3)cc21 (stereo unspecified),inactive
17,COc1cc(/C=C/[N+](=O)[O-])ccc1OC(=O)c1cc2ccccc2oc1=O,"inconclusive: 10 µM [inhibitor, full curve]"
18,O=C(Nc1cccc(C(=O)OCc2cc(=O)n3ccsc3n2)c1)c1ccc(F)cc1,inactive
19,O=c1oc2ccc3ccccc3c2cc1-c1nc2c(s1)CCc1ccccc1-2,"inconclusive: 89.1 µM [inhibitor, single point]"
20,COC(=O)C1=NNC(C(=O)c2ccco2)C1c1ccccc1 (stereo unspecified),"inconclusive: 70.8 µM [inhibitor, single point]"
21,CN1CCCN(c2ncnc3scc(-c4ccc(F)cc4)c23)CC1,"inconclusive: 70.8 µM [inhibitor, partial curve]"
22,O=C(NC1CCCCC1)c1ccc(-c2ccccc2F)o1,"inconclusive: 28.2 µM [inhibitor, partial curve]"

row,Compound,Potency
1,CCOc1cc(/C=C2\C(=O)N(c3ccc(C(N)=O)cc3)N=C2C)ccc1OC(=O)c1cccs1,"inconclusive: 28.2 µM [inhibitor, single point]"
2,Cc1cc(C)cc(N2CC(C)(C)C2=O)c1,inactive
3,Cc1cc(NS(=O)(=O)c2ccc(NC(=S)NC(=O)c3ccc(Br)cc3)cc2)no1,active: 44.7 µM
4,Cc1ccc(-n2c(SCCN)nnc2-c2cccc(C)c2)cc1,"inconclusive: 44.7 µM [inhibitor, partial curve, poor fit]"
5,O=C(CC1C(=O)NCCN1Cc1ccccc1)NC1CCCCCC1 (stereo unspecified),"inconclusive: 89.1 µM [inhibitor, single point]"
6,Cc1ccc(C)c(-n2c(-c3ccc4c(c3)OCO4)n[nH]c2=S)c1,"inconclusive: 0.562 µM [inhibitor, partial curve, poor fit]"
7,Cc1cc2nc(-c3ccc[nH]c3=O)n(Cc3ccc(F)cc3)c2cc1C,"inconclusive: 31.6 µM [inhibitor, single point]"
8,C[C@H](NC(=O)[C@@H]1Cc2ccccc2CN1C(=O)OC(C)(C)C)C(=O)NCc1ccco1,"inconclusive: 79.4 µM [inhibitor, single point]"
9,COCCN(C(=O)COC(=O)/C=C/c1ccc(C)o1)c1c(N)n(Cc2ccccc2)c(=O)[nH]c1=O,"inconclusive: 79.4 µM [inhibitor, partial curve]"
10,Cc1ccc(OC(=S)Nc2ccccc2)c(C)c1,inactive
11,c1ccc(-c2nc(NCc3ccco3)c3ccccc3n2)nc1,"inconclusive: 22.4 µM [inhibitor, single point]"
12,Fc1ccccc1/C=C1\CCCC2=C1Nc1nnnn1C2c1ccccc1F (stereo unspecified),"inconclusive: 6.31 µM [inhibitor, full curve]"
13,Cc1ccc(NC(=O)c2ccc(Cl)c(N3C(=O)C=CC3=O)c2)cc1,"inconclusive: 2 µM [inhibitor, partial curve, poor fit]"
14,CCOC(=O)c1ccc(S(=O)(=O)N2CCN(Cc3cc4c(cc3O)OCO4)CC2)cc1,"inconclusive: 1.41 µM [inhibitor, full curve]"
15,COc1ccccc1OCC(=O)Nc1ccncc1,inactive
16,Cc1cccc(C)c1NC(=O)Cn1c(=O)n(CCCC(=O)NC2CCN(Cc3ccccc3)CC2)c(=O)c2ccccc21,"inconclusive: 39.8 µM [inhibitor, single point]"
17,CN1CCc2nc(SCC(=O)Nc3cccc(F)c3)c(C#N)c(-c3cccs3)c2C1,active: 5.01 µM
18,CCOC(=O)C(=O)NCC(c1ccco1)S(=O)(=O)c1cccs1 (stereo unspecified),"inconclusive: 20 µM [inhibitor, single point]"
19,COc1ccc(N(C)C(=O)c2ccc3c(Cl)c4c(nc3c2)CCCC4)c(OC)c1,"inconclusive: 70.8 µM [inhibitor, partial curve]"
20,Cc1cccc(/N=C/c2c(O)cc(C)oc2=O)n1,"inconclusive: 31.6 µM [inhibitor, single point]"
21,CCOC(=O)C1CCCN(C2CC(=O)N(c3cccc(C)c3)C2=O)C1 (stereo unspecified),"inconclusive: 44.7 µM [inhibitor, single point]"
22,O=[N+]([O-])c1ccccc1S(=O)(=O)NCCSCc1ccco1,"inconclusive: 35.5 µM [inhibitor, partial curve]"

row,Compound,Potency
1,OC[C@@H]1[C@@H](c2ccc(Cl)cc2)C(c2ccccc2)=NN1c1ccccc1,"inconclusive: 89.1 µM [inhibitor, single point]"
2,CN1CCN(C(=O)/C=C/c2ccc([N+](=O)[O-])o2)CC1,"inconclusive: 10 µM [inhibitor, partial curve, poor fit]"
3,O=[N+]([O-])c1ccc(CN2CCN(c3ccccc3Cl)CC2)o1,"inconclusive: 35.5 µM [inhibitor, full curve]"
4,COC(=O)/C(C#N)=C/c1ccc(OC(=O)c2ccccn2)cc1,"inconclusive: 63.1 µM [inhibitor, single point]"
5,Cc1ccc(N/N=C/c2cccnc2)cc1,"inconclusive: 28.2 µM [inhibitor, partial curve]"
6,COc1ccc(S(=O)(=O)NCC(c2ccco2)S(=O)(=O)c2cccs2)cc1OC (stereo unspecified),"inconclusive: 17.8 µM [inhibitor, partial curve, poor fit]"
7,CC(=O)Nc1cccc(C(=O)/C=C/c2ccc(Br)cc2)c1,"inconclusive: 56.2 µM [inhibitor, partial curve, poor fit]"
8,O=C(CCSCc1ccccc1Cl)NCCc1ccccc1,inactive
9,Cc1ccc(S(=O)(=O)/N=C2/NC(=O)/C(=C\c3ccco3)S2)cc1,"inconclusive: 56.2 µM [inhibitor, single point]"
10,CC1=NN(c2ccccc2)C(=O)C1N=Nc1ccc(N)cc1 (stereo unspecified),"inconclusive: 31.6 µM [inhibitor, single point]"
11,CCCCCC(C)n1[nH]c(=O)cc1N (stereo unspecified),"inconclusive: 35.5 µM [inhibitor, single point]"
12,O=C(CNC(=O)Cn1ccc2ccccc2c1=O)NCCCN1CCCCCC1,"inconclusive: 79.4 µM [inhibitor, single point]"
13,CCN(CC(=O)Nc1ccc(OC)cc1)C(=O)c1cc([N+](=O)[O-])ccc1N1CCOCC1,"inconclusive: 89.1 µM [inhibitor, partial curve, poor fit]"
14,Cc1ccc(-c2nc3ncccc3o2)cc1NC(=S)NC(=O)c1ccco1,"inconclusive: 70.8 µM [inhibitor, partial curve]"
15,O=C(/C=C/c1ccccc1[N+](=O)[O-])Nc1ccc(S(=O)(=O)Nc2ncccn2)cc1,"inconclusive: 89.1 µM [inhibitor, single point]"
16,COc1ccccc1N(CC(=O)NCCSc1ccccc1)S(=O)(=O)c1ccc(C)cc1,inactive
17,Cc1ccc(/C=C/C(=O)Nc2cc(=O)n(C)c(=O)n2C)o1,active: 7.94 µM
18,CC(=O)N1CCc2cc(C(=O)CN3CCC(C)CC3)ccc21,"inconclusive: 25.1 µM [inhibitor, partial curve, poor fit]"
19,O=C(COc1ccc2ccc(=O)oc2c1)Nc1nccs1,"inconclusive: 22.4 µM [inhibitor, single point]"
20,CCC(Sc1nc2n[nH]c(C)c2c(=N)n1-c1ccc(Br)cc1)C(=O)N(CC)CC (stereo unspecified),inactive
21,Clc1ccc(-c2noc(CSc3nnc(-c4ccncc4)n3-c3ccccc3)n2)cc1,inactive
22,CCC(=O)n1nc(-c2ccco2)nc1SCc1ccccc1,"inconclusive: 50.1 µM [inhibitor, partial curve]"
